{"source": "PubChem BioAssay AID504466", "about": "(National Center for Advancing Translational Sciences (NCATS), 2011)", "note": "In all, about 330,000 compounds went through this assay and about 4,200 (1.3%) were called active. Inconclusive means that the source gave no clear call. Such entries were picked first, then a sample of the others. Calls come from the whole dose curve; as a rule, active = well fitted activation curve with a large enough effect; inconclusive = small, poorly fitted or top-dose-only effect; inactive = no such curve, though single readings can be large or run the other way. Potencies beside an inconclusive call are fits to weak or partial responses and may not hold up. Potency is the fitted concentration of half-maximal effect; tags give direction and shape of the fitted curve.", "data": [{"test": "qHTS screen for small molecules that induce genotoxicity in human embryonic kidney (HEK293T) cells expressing luciferase-tagged ELG1; note: nearly all actives have a fitted effect of over 60% in size", "conditions": "HEK293T ELG1-luciferase reporter, luminescence, 16 h; series mostly up to 46 µM", "how_it_was_run": "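HEK293T cells expressing luciferase-tagged ELG1 were treated with compound or DMSO for 16 hr at 37°C. Luciferase activity was then read after 30 min with ONE-Glo at room temperature; rising signal flags genetic stress.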", "values": [{"smiles": "COc1cc(OC)c2c(=O)cc(-c3ccccc3)oc2c1", "Potency": "active: 23.1 µM"}, {"smiles": "COc1ccc2nc(NC(=O)c3ccc(F)cc3)sc2c1", "Potency": "inconclusive: 5.8 µM [activator, partial curve]"}, {"smiles": "COc1ccc(CCN(C)C(=O)COc2cccc(-n3cnnn3)c2)cc1OC", "Potency": "inactive"}, {"smiles": "O=C(COC(=O)c1c(Cl)ccc(Cl)c1Cl)NCC1CCCO1", "note": "(stereo unspecified)", "Potency": "inactive"}, {"smiles": "COC(=O)c1ccc(NC(=O)C2CCCO2)cc1", "note": "(stereo unspecified)", "Potency": "inconclusive: 20.6 µM [activator, partial curve, poor fit]"}, {"smiles": "Clc1ccc(-c2ccc(SCc3ccccn3)nn2)cc1", "Potency": "inconclusive: 2.59 µM [activator, full curve, poor fit]"}, {"smiles": "CC1CN(C(=S)SCC(=O)c2ccccc2)CC(C)O1", "note": "(stereo unspecified)", "Potency": "inactive"}, {"smiles": "O=C(N/C(=C\\c1ccc(Br)cc1)C(=O)N1CCOCC1)c1ccc([N+](=O)[O-])cc1", "Potency": "inactive"}, {"smiles": "CC(C)C(=O)O/N=C1\\CCS(=O)(=O)c2sccc21", "Potency": "inactive"}, {"smiles": "CS(=O)(=O)c1cnc2c(-c3ccc(F)cc3)cnn2c1N", "Potency": "inconclusive: 5.8 µM [activator, partial curve]"}, {"smiles": "Cc1cn(C2CC(OC(=O)C(C)C)C(CO)O2)c(=O)[nH]c1=O", "note": "(stereo unspecified)", "Potency": "inactive"}, {"smiles": "O=C(Nc1ccc2c(c1)OCO2)c1c(Cl)nc2sccn12", "Potency": "inconclusive: 7.31 µM [activator, partial curve]"}, {"smiles": "Cc1nn(-c2nc3ccccc3[nH]2)c(N)c1-c1ccccc1", "Potency": "inconclusive: 2.59 µM [activator, partial curve]"}, {"smiles": "O=C(c1ccc(-n2cncn2)c([N+](=O)[O-])c1)N1CCN(S(=O)(=O)c2cccc(F)c2)CC1", "Potency": "inactive"}, {"smiles": "O=C(Nc1ccc(NC(=O)c2ccco2)nc1)c1cccnc1", "Potency": "inconclusive: 14.6 µM [activator, partial curve]"}, {"smiles": "COc1ccc(-n2cnc3sc(-c4ccccc4)cc3c2=O)cc1", "Potency": "inconclusive: 0.517 µM [activator, full curve, poor fit]"}, {"smiles": "O=C(Nc1ccc(-c2nc3ccc(NC(=O)c4cccs4)cc3[nH]2)cc1)c1cccs1", "Potency": "active: 12.6 µM"}, {"smiles": "CN(C)c1ccc(NC(=O)c2sc(SCC(=O)Nc3ccc(Br)cc3)nc2N)cc1", "Potency": "inactive"}, {"smiles": "CC(=O)Nc1sc(N/N=C/c2ccc(O)cc2)nc1-c1ccc(C)cc1", "Potency": "inconclusive: 23.1 µM [activator, partial curve, poor fit]"}, {"smiles": "N/C(=N\\OC(=O)Cc1ccccc1)c1cccnc1", "Potency": "inactive"}, {"smiles": "COc1ccc(-n2c(=O)c3ccccc3n(CC(=O)NC3CCCCC3)c2=O)cc1", "Potency": "inactive"}, {"smiles": "COc1cccc(NC(=O)NCCC2=CCCCC2)c1", "Potency": "inconclusive: 16.4 µM [activator, partial curve, poor fit]"}, {"smiles": "COc1ccc(N/C=C/C(=O)c2ccc3c(c2)OCO3)cc1OC", "Potency": "inconclusive: 20.6 µM [activator, single point]"}, {"smiles": "COc1ccc(N(Cc2ccccc2)C(=O)c2ccccc2[N+](=O)[O-])cc1", "Potency": "inactive"}, {"smiles": "Cc1ccc2c(CSc3nnc(C4CC4)n3N)cc(=O)oc2c1C", "Potency": "inconclusive: 29.1 µM [activator, partial curve, poor fit]"}, {"smiles": "CS(=O)(=O)N1N=C(c2ccccc2)CC1c1ccc2c(c1)OCO2", "note": "(stereo unspecified)", "Potency": "inconclusive: 8.2 µM [activator, partial curve, poor fit]"}, {"smiles": "Cc1c(C(=O)N2CCc3ccccc32)oc2ccccc12", "Potency": "active: 3.66 µM"}, {"smiles": "CCN(CC)c1ccc2cc(-c3nc4ccccc4n3C)c(=O)oc2c1", "Potency": "inconclusive: 2.59 µM [activator, partial curve]"}, {"smiles": "O=C(c1ccc(COc2ccccc2Br)o1)N1CCCCCC1", "Potency": "inconclusive: 13 µM [activator, partial curve, poor fit]"}, {"smiles": "O=C(Nc1ccc2c(c1)nc1n2CCOC1)c1ccccc1", "Potency": "inconclusive: 16.4 µM [activator, partial curve]"}, {"smiles": "CCOC(=O)/C=c1\\s/c(=C\\c2ccc(C(F)(F)F)cc2)c(=O)n1CC(=O)NCc1ccco1", "Potency": "inconclusive: 32.6 µM [activator, partial curve, poor fit]"}, {"smiles": "O=C(/C=C/c1ccco1)Nc1scc(-c2ccccc2)c1C(=O)O", "Potency": "inconclusive: 2.06 µM [activator, full curve, poor fit]"}, {"smiles": "CC(=O)c1ccc(N2CCN(C(=O)/C=C/c3ccc(S(=O)(=O)N4CCOCC4)cc3)CC2)cc1", "Potency": "inactive"}, {"smiles": "COCn1c(=O)c2c(nc(SC3=NCCS3)n2Cc2ccccc2C)n(COC)c1=O", "Potency": "inactive"}, {"smiles": "COc1ccc(NC(=O)c2nnn(CC(=O)Nc3ccccc3OC)c2N)c(OC)c1", "Potency": "inconclusive: 20.6 µM [activator, single point]"}, {"smiles": "O=C(Nc1ccc2c(c1)CCC2)Nc1ccccc1F", "Potency": "active: 0.411 µM"}, {"smiles": "CCCc1nn(C)c(C(=O)Nc2ccccc2)c1Cl", "Potency": "inconclusive: 4.11 µM [activator, full curve]"}, {"smiles": "O=C(NC1CCN(Cc2ccccc2)CC1)c1ccc2c(c1)OCCCO2", "Potency": "inactive"}, {"smiles": "COc1cccc2oc3ccc(C#CC4(N)CCCCC4)cc3c(=O)c12", "Potency": "active: 18.3 µM"}, {"smiles": "Cn1c(=O)n(C)c2cc(NS(=O)(=O)c3ccc4c(c3)CCCC4)ccc21", "Potency": "inconclusive: 18.4 µM [activator, single point]"}, {"smiles": "O=C(Cn1c(C2CC2)nc2ccccc2c1=O)Nc1ccc(Br)cc1", "Potency": "inconclusive: 20.6 µM [activator, partial curve]"}, {"smiles": "O=C(CNC(=O)c1cccs1)c1ccc(Cl)cc1", "Potency": "inconclusive: 3.98 µM [activator, single point]"}, {"smiles": "Cc1ccnc(NC(=S)NC(=O)/C=C/c2ccco2)c1", "Potency": "active: 9.2 µM"}, {"smiles": "Cc1ccc(SCC(=O)OCC(=O)N2CCN(C(=O)c3ccco3)CC2)c(C)c1", "Potency": "inactive"}, {"smiles": "O=C(CSc1ccccc1)Nc1ccc(N2CCOCC2)cc1", "Potency": "inconclusive: 18.4 µM [activator, single point]"}, {"smiles": "S=C(Nc1ccccc1Cl)NC1CC2CCCC(C1)N2C1CC1", "note": "(stereo unspecified)", "Potency": "inactive"}, {"smiles": "COc1ccc(NC(=O)c2cnn(-c3ccccc3)c2C)cc1", "Potency": "inconclusive: 2.31 µM [activator, partial curve]"}, {"smiles": "Cc1ccc(OC(=O)C2c3ccccc3Oc3ccccc32)cc1C", "Potency": "inactive"}, {"smiles": "Clc1c(-c2ccccc2)nnn1-c1ccccc1", "Potency": "active: 8.2 µM"}, {"smiles": "CCC(=O)Nc1cccc(-c2nc3ncccc3o2)c1C", "Potency": "inactive"}, {"smiles": "COC(=O)COc1ccc(S(=O)(=O)N2CCN(c3ccc(OC)cc3)CC2)cc1", "Potency": "inconclusive: 18.3 µM [activator, single point]"}, {"smiles": "CCOc1ccc(/C=C/C(=O)CCC(=O)O)cc1", "Potency": "inconclusive: 4.11 µM [activator, partial curve, poor fit]"}, {"smiles": "C=CCSc1ncnc2c1oc1nc3c(cc12)COC(C)(C)C3", "Potency": "inconclusive: 16.4 µM [activator, partial curve, poor fit]"}, {"smiles": "CCCn1nnc(NC(=O)c2sc3ccccc3c2Cl)n1", "Potency": "active: 9.2 µM"}, {"smiles": "O=C(Cc1c[nH]c2ccccc12)N1CCc2ccccc21", "Potency": "inconclusive: 16.4 µM [activator, single point]"}, {"smiles": "Cc1cccc(-c2nc(N)nc(N)n2)c1", "Potency": "inconclusive: 18.3 µM [activator, partial curve, poor fit]"}, {"smiles": "N#C/C(=C\\c1ccc(O)c(O)c1)C(=O)Nc1ccccc1", "Potency": "inconclusive: 13 µM [activator, partial curve, poor fit]"}, {"smiles": "COc1ccccc1C(=O)Nc1ccnn1C1CCN(Cc2cnc(N(C)C)s2)CC1", "Potency": "inactive"}, {"smiles": "COC(=O)c1ccc(COc2ccccc2/C=N/Nc2cccc(C(=O)O)c2)cc1", "Potency": "inconclusive: 9.2 µM [activator, partial curve, poor fit]"}, {"smiles": "CCOC(=O)c1cc2cc3ccccc3cc2[nH]1", "Potency": "inconclusive: 5.8 µM [activator, partial curve]"}, {"smiles": "CC(=O)Nc1cccc(-c2cn3ccc(C)cc3n2)c1", "Potency": "inconclusive: 4.11 µM [activator, full curve]"}, {"smiles": "O=C(NCC1CCCO1)c1ccc(CNS(=O)(=O)c2cccc(Cl)c2)cc1", "note": "(stereo unspecified)", "Potency": "inactive"}, {"smiles": "O=C(Nc1cc(S(=O)(=O)N2CCCCCC2)ccc1OCC(F)(F)F)c1ccc(=O)[nH]c1", "Potency": "inconclusive: 29.1 µM [activator, partial curve, poor fit]"}, {"smiles": "CCc1ccc(Nc2nnc(SC3CCOC3=O)s2)cc1", "note": "(stereo unspecified)", "Potency": "inactive"}, {"smiles": "NC(=O)CSc1nc(C2CC2)nc2sc3c(c12)CCCC3", "Potency": "active: 9.2 µM"}, {"smiles": "Nn1c(SCc2ccccc2)nc2c(cnn2-c2ccccc2)c1=O", "Potency": "inconclusive: 2.59 µM [activator, full curve, poor fit]"}, {"smiles": "Cc1cc(NC(=O)CN2C(=O)NC(C)(c3ccc(Cl)cc3)C2=O)no1", "note": "(stereo unspecified)", "Potency": "inactive"}, {"smiles": "NS(=O)(=O)c1ccc(NC(=O)CNC(=O)c2ccc3c(c2)OCO3)cc1", "Potency": "inactive"}, {"smiles": "Nc1c(C(=O)N2CCOCC2)sc2nc3c(cc12)CCC3", "Potency": "active: 2.91 µM"}, {"smiles": "Cc1ccc([N+](=O)[O-])cc1S(=O)(=O)Nc1cccc(-c2ccc(N3CCOCC3)nn2)c1", "Potency": "active: 9.2 µM"}, {"smiles": "CC1CCCCC1NC(=O)COc1ccccc1C#N", "note": "(stereo unspecified)", "Potency": "inactive"}, {"smiles": "Cc1ccc(-c2nc(Nc3ccccc3)n[nH]2)cc1", "Potency": "active: 0.651 µM"}, {"smiles": "Cc1cc(C(=O)COc2ccccc2[N+](=O)[O-])c(C)n1C1CC1", "Potency": "inactive"}, {"smiles": "Cc1ccc(-c2nc3ccccc3s2)cc1NC(=O)c1cc(-n2cnnc2)ccc1Cl", "Potency": "inconclusive: 25.9 µM [activator, partial curve, poor fit]"}, {"smiles": "COc1ccc(CN2CCNC(=O)C2CC(=O)NCc2cnn(C)c2)cc1OC", "note": "(stereo unspecified)", "Potency": "inactive"}, {"smiles": "CCOC(=O)c1cnc2c(-c3ccc(Cl)cc3)c(C)nn2c1N", "Potency": "inconclusive: 32.6 µM [activator, partial curve, poor fit]"}]}]}
